Common to all, as to assay: Primary Screen for Target Class Profiling of Small Molecule Inhibitors of Methyltransferases
In experiment [1] the target is Glycine N-methyltransferase (Homo sapiens) (UniProt Q14749). Particulars: purified enzyme, MTase-Glo SAH luminescence; measured here: GNMT inhibition; at 40 µM; stronger effect = lower value. The procedure, abridged:
(§1)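 Each enzyme was assayed with SAM and its substrate. SAH formation detected by MTase-Glo luminescence; single-point 40 uM screen[…].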

Experiment [2] addresses Guanidinoacetate N-methyltransferase (Homo sapiens) (UniProt Q14353). The note with it: purified enzyme, MTase-Glo SAH luminescence; measured here: GAMT inhibition; at 40 µM; stronger effect = lower value. The procedure, abridged: as §1
For experiment [3], the target named is Histamine N-methyltransferase (Homo sapiens) (UniProt P50135). Particulars: purified enzyme, MTase-Glo SAH luminescence; measured here: HNMT inhibition; at 40 µM; stronger effect = lower value. The procedure, abridged:
as §1

The target in experiment [4] is Nicotinamide N-methyltransferase (Homo sapiens) (UniProt P40261). The note with it: purified enzyme, MTase-Glo SAH luminescence; measured here: NNMT inhibition; at 40 µM; stronger effect = lower value. In outline:
as §1

Experiment [5] concerns the target Phenylethanolamine N-methyltransferase (Homo sapiens) (UniProt P11086). Particulars: purified enzyme, MTase-Glo SAH luminescence; measured here: PNMT inhibition; at 40 µM; stronger effect = lower value. In outline:
as §1

The list shows a part of the results. The main result of the screen is listed elsewhere. These columns were measured beside it and carry no call.
% is scaled to controls: 0 for no effect and ±100 for the full control effect.

Consider `O=C(CCc1nnc2n(Cc3ccccc3Cl)c(=O)c3ccccc3n12)N1CCN(C2CCCCC2)CC1`, for which the activity change, negative = inhibition in experiment [1] was -8.9%; in experiment [2], 3.73%; in experiment [3], -3.69%; in experiment [4], -1.43%; in experiment [5], -1.1%.
As to `CC(C)c1noc(-c2cn(C3CCN(C(=O)c4ccc5ccccc5n4)C3)nn2)n1` (stereo not given), the activity change, negative = inhibition is -4.13% in experiment [1]; 3.46% in experiment [2]; 2.54% in experiment [3]; -8.41% in experiment [4]; -17.7% in experiment [5].
Consider `CCCC1c2ccc(C)n2CCN1C(=O)Nc1ccccc1OCC` (stereo not given), for which the activity change, negative = inhibition in experiment [1] is 3.46%; in experiment [2], -0.148%; in experiment [3], -4.51%; in experiment [4] it was 6.73%; in experiment [5], -0.76%.
As for `C=CCn1c(=O)c2ccc(C(=O)NC(C)C)cc2n2c(=O)n(CC(=O)Nc3ccc(Cl)cc3)nc12`, the activity change, negative = inhibition in experiment [1] amounted to 3.54%; in experiment [2], 0%; in experiment [3] it was 4.06%; in experiment [4] it was 2.51%; in experiment [5] it was 3.76%.
For the compound `Clc1ccc(-c2nnn3c2nc(NC2CCCC2)c2ccccc23)cc1`, the activity change, negative = inhibition in experiment [1] is -1.92%; in experiment [2], 7.87%; in experiment [3] it was 2.19%; in experiment [4] it was -1.84%; in experiment [5], -1.09%.
Taken in the same sequence, the figures for `Cc1ccc(C)c(NC(=O)c2ncn3c2C(=O)N(C2CC2)C(C)(C(=O)NCc2ccc(F)cc2)C3)c1` (stereo not given) were -2.45%, 0.439%, 11.4%, -0.289% and 13.5%.
`Cc1ccnc(NS(=O)(=O)c2ccc(NC(=O)Nc3ccc(S(=O)(=O)Nc4nccc(C)n4)cc3)cc2)n1`: the activity change, negative = inhibition in experiment [1] was -2.04%; in experiment [2] it was -0.269%; in experiment [3] it was 5.18%; in experiment [4], -7.9%; in experiment [5] it was 2.18%.
Take `Cc1ccc(C2(C(=O)N3CCC(n4nc(-c5ccccc5)oc4=O)CC3)CC2)cc1`: the activity change, negative = inhibition in experiment [1] is -5.33%; in experiment [2] it was -5.64%; in experiment [3], -7.37%; in experiment [4], -30%; in experiment [5] it was -17.9%.
On the same counts, the results for `Cc1ccc(C2=NC3(CCN(C(=O)c4n[nH]c5c4CCCC5)CC3)ON2)cc1` are -12.9%, -9.51%, -11.9%, -24.8% and -10.4%.
As to `O=C(O)C1=CO[C@@H](O[C@@H]2O[C@H](CO)[C@@H](O)[C@H](O)[C@H]2O)[C@@H]2C(CO)=CC[C@H]12`, the activity change, negative = inhibition in experiment [1] was 5.67%; in experiment [2], 6.09%; in experiment [3] it was 11.8%; in experiment [4], -5.33%; in experiment [5], 7.06%.
Taken in the same sequence, the figures for `CC1CCC2C(C)(C)CC(C)(CO)C2(O)C1C(=O)O` (stereo not given) were 4.47%, 1.75%, 8.52%, -8.74% and 4.75%.
For `Cc1cc(N2C(=O)c3ccc(-c4ccco4)n3CC2(C)C(=O)NC2CCCC2)ccc1Br` (stereo not given), the activity change, negative = inhibition in experiment [1] was -12.5%; in experiment [2], -14.6%; in experiment [3], -3.44%; in experiment [4], -17.4%; in experiment [5] it was -11.5%.
On the same counts, the results for `C#CCCCn1cc(-c2cccc3c2N[C@@H](C)CC(=O)N3)cn1` are -6.02%, -5.57%, -1.42%, -19.8% and 0.079%.
As to `COc1ccc(NS(=O)(=O)c2ccc3c(c2)[C@H]2C=CC[C@H]2[C@@H](c2cccc(OC)c2OC)N3)cc1`, the activity change, negative = inhibition in experiment [1] is -13.9%; in experiment [2], -0.048%; in experiment [3], -15%; in experiment [4], -5.83%; in experiment [5] it was -15.6%.
Taken in the same sequence, the figures for `CS(=O)(=O)NC[C@H]1Cn2ccnc2CO1` were -0.852%, 1.92%, 2.06%, 0.021% and 7.64%.
Take `CCOc1ccc(C(=O)Cn2nc3n(CC(C)C)c(=O)c4ccc(C(=O)NC(C)CC)cc4n3c2=O)cc1` (stereo not given): the activity change, negative = inhibition in experiment [1] is 1.03%; in experiment [2], 4.25%; in experiment [3], 1.5%; in experiment [4] it was -1.23%; in experiment [5] it was -1.76%.
On the same counts, the results for `CCC(C)NC(=O)c1ccc2c(=O)n(C)c3nn(CC(=O)Nc4cccc(Cl)c4)c(=O)n3c2c1` (stereo not given) are 3.6%, 0.512%, 3.22%, 2.3% and -2.46%.
With `CCCn1c(=O)c2cc(F)ccc2n2c(SCC(=O)NC(C)CC)nnc12` (stereo not given), the activity change, negative = inhibition is 6.97% in experiment [1]; 0.416% in experiment [2]; 15.5% in experiment [3]; 12.6% in experiment [4]; 10% in experiment [5].
On the same counts, the results for `CCOC(=O)N1CCN(Cc2nccn2CCOC)CC1` are -3.48%, -8.32%, -1.35%, -9.52% and -6.26%.
Taken in the same sequence, the figures for `COc1ccc(-c2nc(-c3ccc(S(=O)(=O)N4CCC(C)CC4)cc3)no2)c(OC)c1` were -6.73%, 0.063%, -1.95%, -4.32% and -9.7%.
As to `CCCCc1ccc(CN2C[C@@H]3CC[C@H](C2)N(Cc2ccccn2)C3=O)s1`, the activity change, negative = inhibition is -8.47% in experiment [1]; -2.84% in experiment [2]; -4.25% in experiment [3]; -10.1% in experiment [4]; -17.8% in experiment [5].
Taken in the same sequence, the figures for `CC(C)NC(=O)Cn1nc2nc(Nc3ccc(F)cc3)ccn2c1=O` were -8.84%, -0.514%, -3.42%, -5.9% and -8.57%.
On the same counts, the results for `CCC(CC)C(=O)NCc1cccnc1Oc1cccc(C(F)(F)F)c1` are -0.278%, -0.481%, 1.44%, -1.6% and -12.8%.
Taken in the same sequence, the figures for `O=C1NC2(CCN(CC3CCCCC3)CC2)COc2ccccc21` were -4.33%, -0.006%, -7.24%, -3.18% and 3.63%.
For `CC(NC(=O)c1n[nH]c2ccccc12)C(=O)N1CCN(c2ccccn2)CC1` (stereo not given), the activity change, negative = inhibition in experiment [1] was determined as 12.8%; in experiment [2] it was 1.91%; in experiment [3], 12.9%; in experiment [4] it was 7.08%; in experiment [5] it was 8.86%.
Regarding `CCc1cc2c(cc3n2CC(C)(C(=O)NC2CCC(C)CC2)N(Cc2ccc(C)cc2)C3=O)s1` (stereo not given), the activity change, negative = inhibition in experiment [1] is 1.33%; in experiment [2] it was 0.659%; in experiment [3] it was 4.62%; in experiment [4] it was -3.65%; in experiment [5] it was 1.4%.
On the same counts, the results for `CC(C)(O)c1ccc2c(c1)ncn2-c1cccc(-c2ccccc2C#N)c1` are -38.3%, -23.4%, -43.6%, -56.4% and -43%.
For `CCCn1c(=O)c2ccccc2n2c(SCC(=O)Nc3ccccc3F)nnc12`, the activity change, negative = inhibition was -10.1% in experiment [1]; 1.52% in experiment [2]; 1.55% in experiment [3]; -11.7% in experiment [4]; -1.16% in experiment [5].

For the origin of these results see PubChem BioAssay AID1745853 (National Center for Advancing Translational Sciences (NCATS), 2022).
